Assay results as given in PubChem BioAssay AID938 (National Center for Advancing Translational Sciences (NCATS), 2007).
Where “and” joins values, the source holds several entries; their conditions need not be identical. Equal values may be shown once. The campaign covered roughly 73,000 compounds. About 1,800 (2.5%) were called active. The shares of active, inactive and inconclusive entries below differ from those in the screen. Calls follow the shape of the dose curve; as a rule, active = well fitted activation curve with a large enough effect; inconclusive = small, poorly fitted or top-dose-only effect; inactive = no such curve, though single readings can be large or run the other way. Potencies beside an inconclusive call are fits to weak or partial responses and may not hold up.

experiment: qHTS Assay for Agonists of the Thyroid Stimulating Hormone Receptor: Activators of Intracellular cAMP Concentrations in Parental HEK 293; settings: parental HEK293 CNG cAMP sensor, membrane potential fluorescence; activation: at 57.1 µM (top of the series) unless noted; also: nearly all actives have a fitted effect of over 55% in size; as to activation: % of control where 0% means no effect
Outline: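 Parental HEK 293 cells stably expressing a modified CNG channel (no TSHR) report cAMP rise as membrane depolarization. Membrane potential dye with 100 uM RO 20-1724 was loaded for 60 min at room temperature, then compound added for 30 min; fluorescence read at 590 nm.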
Potency is read from the fitted curve at half-maximal effect; tags tell the direction and shape of the fitted curve.

For `C[N+](C)(C)CCC(=O)c1cccc2ccccc12`, which Potency is on record?
The Potency was inconclusive: 39.8 µM [activator, single point].

With `O=C(NC1CCCCC1)N1CCCc2ccccc21` as the compound, how does the Potency read?
Its Potency is inconclusive: 3.98 µM [activator, single point].

Which “activation” value does the source give for `COc1ccc(C)cc1Nc1cc(C)nc2nc(C)nn12` here?
Its value is inactive: 12.1%.

For `Brc1ccc(Nc2c3c(nc4ncnn24)CCC3)cc1`, which Potency is on record?
Its Potency is inconclusive: 15.8 µM [activator, partial curve].

Which Potency does the source give for `COCCOC(=O)c1c(C)oc2ccc(OC(=O)c3ccc4c(c3)OCO4)cc12` here?
Its Potency is inconclusive: 12.6 µM [activator, partial curve].

With `Cc1cc(C(=O)CSc2nnc(-c3cccs3)o2)c(C)n1-c1ccccc1` as the compound, how does the Potency read?
The Potency was inconclusive: 15.8 µM [activator, partial curve].

With `Cc1csc(NC(=O)CSCC(=O)Nc2ccccc2)n1` as the compound, how does the Potency read?
Its Potency is inconclusive: 10 µM [activator, partial curve].

With `N[C@@H]1CCN(O)C1=O` as the compound, how does the Potency read?
Its Potency is “inactive and inconclusive: 39.8 µM [activator, single point]”.

With `Clc1cccc(-c2nc3nc4ccccc4nc3n2Cc2ccco2)c1` as the compound, how does the Potency read?
Its Potency is inconclusive: 31.6 µM [activator, single point].

With `COc1ccc(C(C)=O)cc1COC(=O)c1cc(C)oc1C` as the compound, how does the Potency read?
The Potency was active: 25.1 µM.

For `CCOC(=O)c1nnn(-c2nonc2N)c1CN1CCCCCC1`, which Potency is on record?
The Potency was inconclusive: 20 µM [activator, single point].

Which “activation” value does the source give for `O=C(CCSc1ccccc1)NCCSc1ccccn1` here?
The value was inactive: 15.3%.

For `O=C(c1csnn1)N1CCC2(CC1)CN(c1cccc(-c3ccccc3)c1)C2`, which Potency is on record?
Its Potency is inconclusive: 5.01 µM [activator, full curve].

With `COc1ccc(-c2oc(/N=C/N3CCOCC3)c(C#N)c2-c2ccc(OC)cc2)cc1` as the compound, how does the “activation” value read?
The value was inactive: -11.7%.

Which Potency does the source give for `COc1ccc(Oc2ncc3nc(CCc4ccccc4)c(=O)n(C4CC4)c3n2)cc1` here?
The Potency was inconclusive: 3.98 µM [activator, full curve].

For `COc1ccc(C(=O)OCC(=O)c2ccc(C)c(S(=O)(=O)N3CCOCC3)c2)cc1OC`, which Potency is on record?
The Potency was inconclusive: 31.6 µM [activator, single point].

With `COc1ccc(N2CCN(C(=O)c3c(-c4ccccc4)noc3C)CC2)cc1` as the compound, how does the “activation” value read?
The value was inactive: 3.17%.

For `CCOP(=O)(c1c(F)c(F)c(F)c(F)c1F)C(O)c1ccccc1` (stereo not given), which Potency is on record?
Its Potency is inconclusive: 25.1 µM [activator, partial curve].

For `COC(=O)C(Cc1ccc(O)cc1)NC(=O)C(C)Oc1ccccc1` (stereo not given), which Potency is on record?
Its Potency is inconclusive: 0.158 µM [activator, single point].

With `Oc1ccc(N2CCN(C(c3cccs3)c3nnnn3CCc3ccccc3)CC2)cc1` (stereo not given) as the compound, how does the Potency read?
The Potency was inconclusive: 25.1 µM [activator, partial curve].

With `CCN(CC)CCN(CC)Cc1ccccc1Br` as the compound, how does the Potency read?
Its Potency is inconclusive: 3.98 µM [activator, partial curve].

With `COc1ccc(CNC(=O)[C@H](C)[C@H]2C[C@]2(C)[C@H](NC(=O)OCc2ccccc2)c2ccccc2)cc1OC` as the compound, how does the Potency read?
The Potency was inconclusive: 15.8 µM [activator, partial curve].

With `CCOC(=O)Cc1c(C)nc2c(-c3cccc(Br)c3)c[nH]n2c1=O` as the compound, how does the “activation” value read?
The value was inactive: -23%.

Which Potency does the source give for `O=C(Nc1ccccc1C(=O)OCC(=O)N1CCc2ccccc2C1)c1ccco1` here?
The Potency was inconclusive: 20 µM [activator, partial curve].

For `COc1cccc(NC(=O)N(Cc2cc3cc(C)cc(C)c3[nH]c2=O)CC2COCCO2)c1` (stereo not given), which Potency is on record?
Its Potency is inconclusive: 15.8 µM [activator, single point].

Which Potency does the source give for `CCOC(=O)c1cnn(-c2nc(C)cc(C)n2)c1N` here?
Its Potency is inconclusive: 6.31 µM [activator, single point].

Which “activation” value does the source give for `C=CCNc1nc(NC(C)(C)CO)nc(OCC)n1` here?
Its value is inactive: 3.45%.

With `Nc1nc(C2CC2)c(Sc2sc(N)nc2C2CC2)s1` as the compound, how does the “activation” value read?
The value was inactive: -17.3%.

Which “activation” value does the source give for `CCN1CCN(c2nc(SC)nc3sc4c(c23)CC(C)(C)OC4)CC1` here?
Its value is inactive: 1.93%.

For `Cc1cccc(C(=O)Nc2ccccc2C(=O)OCc2c(C)noc2C)c1`, which Potency is on record?
The Potency was active: 15.8 µM.

With `Cc1ccccc1-c1ccc2ncnc(NCc3cccnc3)c2c1` as the compound, how does the Potency read?
Its Potency is inconclusive: 15.8 µM [activator, partial curve].

With `Cc1ccccc1-c1nc(CS(=O)CC(=O)NCCN2CCN(Cc3ccccc3)CC2)c(C)o1` (stereo not given) as the compound, how does the Potency read?
The Potency was inconclusive: 5.01 µM [activator, full curve, poor fit].

With `O=C(CN1CCN(C2CCCCC2)CC1)Nc1ccccc1N1CCCCC1` as the compound, how does the Potency read?
The Potency was inconclusive: 25.1 µM [activator, single point].

Which “activation” value does the source give for `COc1ccc(OC)c(NC(=O)C2CCCC2)c1` here?
The value was inactive: 2.44%.

For `COc1cc(C(=O)Nc2nnc(-c3sccc3C)s2)cc(OC)c1OC`, which Potency is on record?
Its Potency is inconclusive: 31.6 µM [activator, single point].

With `Cc1ccc2nc(CSc3nnc(-c4ccco4)n3-c3ccccc3)cc(=O)n2c1` as the compound, how does the Potency read?
Its Potency is inconclusive: 20 µM [activator, partial curve].

With `CCc1ccc2c(c1)CCCN2C(=O)c1ccccc1C(=O)O` as the compound, how does the Potency read?
Its Potency is inconclusive: 39.8 µM [activator, single point].

With `CCCc1cc(C(=O)NC2CCCCC2)no1` as the compound, how does the “activation” value read?
The value was inactive: 23.3%.

Which Potency does the source give for `Cc1cc2oc(=O)cc(CN3CCc4ccccc43)c2cc1Cl` here?
The Potency was inconclusive: 7.94 µM [activator, partial curve].

For `O=C1CCCN1CCC1CCN(C2CC(=O)N(c3ccc(Cl)cc3)C2=O)CC1` (stereo not given), which Potency is on record?
Its Potency is inconclusive: 6.31 µM [activator, single point].

With `COc1ccccc1OCC(=O)N1CCN(c2ccccc2OC)CC1` as the compound, how does the Potency read?
Its Potency is inconclusive: 6.31 µM [activator, single point].

Which Potency does the source give for `Cc1ccc(-n2ncc3c(=O)[nH]c(SCC(=O)N4CCN(c5ccccc5)CC4)nc32)cc1` here?
The Potency was inconclusive: 6.31 µM [activator, single point].

Which Potency does the source give for `Cc1cccc(NC(=O)C(C)Oc2ccccc2C)n1` (stereo not given) here?
Its Potency is inconclusive: 31.6 µM [activator, single point].

With `COC(=O)c1ccccc1NC(=O)c1ccccc1NS(C)(=O)=O` as the compound, how does the Potency read?
The Potency was inconclusive: 25.1 µM [activator, partial curve].

For `CCN(C(=O)N(CC)c1ccccc1)c1ccccc1`, which Potency is on record?
The Potency was active: 15.8 µM.
